The results in this text go back to PubChem BioAssay AID360 (National Center for Advancing Translational Sciences (NCATS), 2006).

Values joined by “and” are separate entries in the source; they are usually repeats but may differ in a detail not shown here. Identical values can stand only once. Hit rate of the full screen: of about 48,000 compounds, about 550 (1.1%) were called active. About 4% were inconclusive and are not listed. No stated cut-off is given here; in the data, active means potency below about 15 µM; inconclusive means mostly about 16 µM to 33 µM; inactive means weaker than that. The list shows a part of the results.
Potency means the concentration at half of the fitted maximal effect.

Sequence of UniProt P04062 (P04062 whole entry, looked up): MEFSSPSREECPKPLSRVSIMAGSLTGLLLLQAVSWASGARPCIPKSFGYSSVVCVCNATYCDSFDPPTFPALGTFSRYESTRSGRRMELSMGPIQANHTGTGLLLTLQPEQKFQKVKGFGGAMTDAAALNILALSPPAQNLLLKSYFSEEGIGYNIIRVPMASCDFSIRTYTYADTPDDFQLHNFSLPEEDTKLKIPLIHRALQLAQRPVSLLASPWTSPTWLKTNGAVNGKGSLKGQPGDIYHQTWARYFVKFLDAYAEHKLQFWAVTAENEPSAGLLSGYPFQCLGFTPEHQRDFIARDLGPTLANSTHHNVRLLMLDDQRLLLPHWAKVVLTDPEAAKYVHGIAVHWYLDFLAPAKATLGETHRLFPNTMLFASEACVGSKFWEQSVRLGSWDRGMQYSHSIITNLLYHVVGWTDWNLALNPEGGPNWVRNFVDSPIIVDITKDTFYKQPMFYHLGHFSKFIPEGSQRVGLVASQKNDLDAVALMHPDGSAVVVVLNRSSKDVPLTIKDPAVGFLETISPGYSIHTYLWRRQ

In this test the target is Lysosomal acid glucosylceramidase (Homo sapiens) (UniProt P04062). The test is described as follows: Glucocerebrosidase.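 Further: the screen sought inhibitors.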 The conditions noted are these: purified enzyme, resorufin glucoside fluorescence (screen aimed at inhibitors), 20 min. A digest of the protocol:
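Wild-type enzyme at 0.2 nM final in 50mM citric acid/KH2PO4, 10mM sodium taurocholate, 0.01% tween-20, pH 5.9, with resorufin beta-D-glucopyranoside at 30 uM final. Compounds titrated, 20 min at RT, red fluorescence read; AC50 from titration.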
As to `CN(c1ccccc1C(=O)Nc1cccc(C(F)(F)F)c1)S(C)(=O)=O`, the Potency was inactive: > 76.9 µM. For `COc1ccc(N2CCN(Cc3nc(N)nc(Nc4ccccc4OC)n3)CC2)cc1` the value was active: 3.92 µM; for `Cc1sc(NC(=O)CSc2nnc(-c3ccc(F)cc3)o2)c(C#N)c1C`, inactive: > 76.9 µM; for `O=C(CCN1C(=O)C2C3C=CC(C3)C2C1=O)NCc1cccnc1` (centres undefined), inactive: > 76.9 µM. Regarding `COc1ccccc1CNC(=O)CCCn1c(=O)c2ccccc2n(CC(=O)NC2CCCC2)c1=O`, the Potency was inactive: > 76.9 µM. For `COc1ccc(C(C)(C)C)cc1NC(=O)c1c(C)noc1C` the value was inactive: > 76.9 µM.

For the compound `CCn1nnnc1Oc1ccc(Cl)cc1`, the Potency is inactive: > 76.9 µM. For `COc1ccc2cc(CN(CC3COCCO3)S(=O)(=O)c3ccccc3)c(=O)[nH]c2c1` (centres undefined) the value was inactive: > 76.9 µM; for `O=C(NCc1cn2ccsc2n1)Nc1cccc(Cl)c1`, inactive: > 76.9 µM; for `Cc1cc(C(=O)CN2C(=O)c3ccccc3C2=O)c(C)n1Cc1cccs1`, inactive: > 76.9 µM. For `CCCn1c(SCC(=O)NC2CCCCC2)nnc1-c1ccncc1`, the Potency is inactive: > 76.9 µM. For `O=c1cc(CNCCCO)c2ccccc2[nH]1` the value was inactive: > 76.9 µM; for `COc1c(Br)cc(Br)cc1C(=O)O`, inactive: > 76.9 µM; for `CSc1cccc(NC(=O)CN(C)S(=O)(=O)c2ccc(F)cc2)c1`, inactive: > 76.9 µM.

In the case of `COc1cc(C2NC(=O)NC(O)(C(F)(F)F)C2C(=O)c2ccc(Cl)cc2)ccc1O` (centres undefined), the Potency was inactive: > 76.9 µM. Regarding `O=C(CNC(=O)c1cc2ccccc2o1)NCc1cccs1`, the Potency is inactive: > 76.9 µM. For `CCN1C(=O)/C(=C2/Sc3ccccc3N2CCCS(=O)(=O)O)SC1=S` the value was inactive: > 76.9 µM; for `Cc1ccc(NC(=O)CS(=O)CC(=O)Nc2cccc(C)c2C)cc1F` (centres undefined), inactive: > 76.9 µM. For `O=C(CSc1nnc(CN2CCOCC2)n1-c1ccccc1)N1CCc2ccccc21` the value was inactive: > 76.9 µM. For `COCCn1c(CCC(=O)O)nc2c1c(=O)[nH]c(=O)n2CC(C)C` the value was inactive: > 76.9 µM. For the compound `CCOC(=O)C1CCCN(c2nc(C)nc3c2oc2ccccc23)C1` (centres undefined), the Potency was inactive: > 76.9 µM. Take `CC(=O)c1ccc(C(C)(C)c2ccc(C(C)=O)s2)s1`: the Potency is inactive: > 76.9 µM. For `O=C(CN(C1CCCCC1)S(=O)(=O)c1ccccc1)NCc1cccnc1` the value was inactive: > 76.9 µM; for `Cn1c(=O)c2c(nc(CN3CCC(C(N)=O)CC3)n2Cc2ccccc2F)n(C)c1=O`, inactive: > 76.9 µM. For `COc1cccc(S(=O)(=O)Nc2cccnc2)c1` the value was inactive: > 76.9 µM; for `CC(NS(=O)(=O)c1ccccc1)C(c1cccs1)N1CCN(C)CC1` (centres undefined), “inactive”; for `O=C(CCn1c(=O)oc2ccccc21)N1CCN(c2ccccc2F)CC1`, inactive: > 76.9 µM.

Turning to `O=C(N1CCOCC1)N1CCCN(C(=O)N2CCOCC2)CC1`, the Potency was inactive: > 76.9 µM. For `CCCc1nc2scc(-c3ccccc3)c2c(=O)n1N` the value was inactive: > 76.9 µM; for `CCN1CCCC1CNC(=O)c1cc(NC(C)=O)c(N(C)C)cc1OC` (centres undefined), inactive: > 76.9 µM; for `OCCSc1ncnc2c1oc1ccccc12`, “inactive”.

As for `CCOC(=O)C1CCN(C(=O)c2cnn3c(C)cc(C)nc23)CC1`, the Potency is inactive: > 76.9 µM. As for `COc1cc(C2C3=C(CC(C)(C)CC3=O)Nc3c2c(=O)[nH]c(=O)n3Cc2ccccc2)ccc1O` (centres undefined), the Potency result is “inactive and inactive: > 76.9 µM”.

With `COC(F)(C(=O)Nc1ccc2c(c1)C(=O)NC2=O)C(F)(F)F` (centres undefined), the Potency is inactive: > 76.9 µM. For `Cc1cc(C)c2cc(C#N)c(SCC(=O)NCc3ccco3)nc2c1` the value was inactive: > 76.9 µM; for `Cc1nc(=O)c(-c2ccccc2)c(C)n1CCCO`, inactive: > 76.9 µM. For `COc1cccc(N2CC(C)Cn3c2nc2c3c(=O)n(CCN3CCOCC3)c(=O)n2C)c1` (centres undefined) the value was inactive: > 76.9 µM; for `CC(C)CCn1c(CN2CCN(Cc3ccccc3)CC2)nc2c1c(=O)n(C)c(=O)n2C`, inactive: > 76.9 µM; for `Cc1ccc2nc(SCC(=O)Nc3cc(C)on3)[nH]c2c1`, inactive: > 76.9 µM. Regarding `Cn1c(CCNC(=O)c2ccco2)nc2cc(NC(=O)c3ccco3)ccc21`, the Potency was inactive: > 76.9 µM. For `CCn1c(Cc2c(C)[nH]c3ccccc23)nnc1SCC(N)=O` the value was inactive: > 76.9 µM; for `CCOc1ccc(NC(=O)CSc2nc3cccnc3n2CCOC)cc1`, inactive: > 76.9 µM; for `CN1CCc2c(sc3c2C(=O)NC(c2ccc4c(c2)OCO4)N3)C1` (centres undefined), inactive: > 76.9 µM.

`CN(C)C(=O)c1ccccc1-c1ccccc1`: the Potency is inactive: > 76.9 µM. Turning to `CCOC(=O)Cc1c(C)nc2cc(-c3ccc(C)cc3)[nH]n2c1=O`, the Potency was inactive: > 76.9 µM.

`CCOC(=O)N1CC=C2C(C#N)=C(N)C(C#N)(C#N)[C@H](c3ccsc3)[C@H]2C1`: the Potency is inactive: > 76.9 µM. For `COCCN1C(=O)C(=O)/C(=C(/O)c2cccc(OC)c2)C1c1ccncc1` (centres undefined) the value was inactive: > 76.9 µM; for `Brc1ccc(Oc2nsnc2N2CCOCC2)cc1`, inactive: > 76.9 µM; for `CCn1c(NCc2ccccn2)nc2c1c(=O)n(C)c(=O)n2C`, inactive: > 76.9 µM. For `O=C(Nc1ccc2c(c1)Cc1ccccc1-2)c1ccco1` the value was inactive: > 76.9 µM; for `Cc1cccc2c1nc(-c1ccccc1)n1cnnc21`, inactive: > 76.9 µM. Turning to `CCCOc1cccc(C(=O)O)c1`, the Potency was inactive: > 76.9 µM. For `CCn1c(SCC(=O)OCc2ccccc2)nnc1-c1ccco1` the value was inactive: > 76.9 µM. For `COc1ccc(OC)c2c(N3CCN(C)CC3)cc(C(F)(F)F)nc12` the value was inactive: > 76.9 µM; for `CC1(C)Cc2ccccc2C(=NCCCC(=O)O)N1`, inactive: > 76.9 µM; for `O=C(NC1CCCC1)c1csc2c1CCCC2`, inactive: > 76.9 µM. With `O=C(C1CC1)N1CCc2cc(S(=O)(=O)NC3CCN(Cc4ccccc4)CC3)ccc21`, the Potency was inactive: > 76.9 µM. Regarding `COc1ccc(C(=O)CSc2nccc(=O)[nH]2)cc1`, the Potency is inactive: > 76.9 µM. For `c1ccc(Oc2cccc(OCCCn3cncn3)c2)cc1` the value was inactive: > 76.9 µM.
